According to the supplement of paper PMC12217912:
The list shows a part of the results. Sequences were assembled here from the parent chain. Values near 0.05 are background.

B1: TEV protease; numbered along this chain (parent)
chain: MGESLFKGPRDYNPISSSICHLTNESDGHTTSLYGIGFGPFIITNKHLFRRNNGTLVVQSLHGVFKVKDTTTLQQHLVDGRDMIIIRMPKDFPPFPQKLKFREPQREERICLVTTNFQTKSMSSMVSDTSCTFPSGDGIFWKHWIQTKDGQCGSPLVSTRDGFIVGIHSASNFTNTNNYFTSVPKNFMELLTNQEAQQWVSGWRLNADSVLWGGHKVFMVKPEEPFQPVKEATQL

Variants of: B1
Assay: raw area under fraction-flipped curve 0-4 h after induction (AUC4h, not background-subtracted), DNA-recorder readout of cleavage of the substrate (dimensionless); higher = more cleavage of the substrate by the protease variant
Settings: temperature: 34 °C; time window: 0-4 h after rhamnose induction
Procedure: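 In vivo DNA recorder in E. coli TOP10(DE3) ΔrhaA at 34 °C. Each TEVp single-site mutant (parent TEVp 0) is paired with a single-site variant of the 7-mer TEVs (canonical ENLYFQ|S). The substrate sits between flexible linkers in a Bxb1-sfGFP-TEVs-SsrA fusion, so cleavage stabilises Bxb1 and speeds flipping of a recombination array, read by NGS. The value is the raw area under the fraction-flipped curve over 0-4 h after rhamnose induction (AUC4h), with ≥20 reads per time point. It is not background-subtracted; inactive controls average about 0.047.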
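Note: Bxb1 expression induced with 0.2% (w/v) L-rhamnose at OD600 near 0.5, cultures sampled hourly, flipped fraction per protease–substrate barcode pair counted by paired-end Illumina sequencing.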

Variant | area with substrate CNLYFQS | area with substrate FNLYFQS | area with substrate HNLYFQS | area with substrate INLYFQS | area with substrate KNLYFQS | area with substrate LNLYFQS | area with substrate MNLYFQS | area with substrate PNLYFQS | area with substrate SNLYFQS | area with substrate TNLYFQS | area with substrate VNLYFQS | area with substrate WNLYFQS | area with substrate YNLYFQS | area with substrate GNLYFQS | area with substrate NNLYFQS | area with substrate QNLYFQS | area with substrate RNLYFQS
K90S | 0.0909 | 0.0635 | 0.0649 | 0.0643 | 0.0663 | 0.07 | 0.0846 | 0.0649 | 0.0687 | 0.0632 | 0.042 | 0.0674 | 0.0453 | – | – | – | –
D91I | 0.0716 | – | 0.0754 | 0.0609 | – | – | 0.0771 | – | – | 0.054 | 0.0236 | 0.0647 | – | 0.0751 | 0.0699 | – | –
D91K | 0.0717 | 0.0639 | – | – | – | 0.0642 | – | – | 0.0691 | 0.0623 | – | – | – | – | – | 0.0988 | –
D91N | 0.0614 | – | 0.047 | – | – | – | 0.0547 | – | 0.0574 | – | – | 0.0775 | 0.089 | – | 0.0671 | – | –
D91R | 0.0753 | – | 0.0939 | – | 0.0739 | – | – | – | 0.0806 | – | – | 0.0465 | – | 0.0562 | – | – | –
F92D | 0.0524 | – | – | – | 0.0522 | – | 0.0714 | 0.0523 | 0.0496 | – | – | 0.0476 | – | – | – | – | –
F92I | 0.0692 | – | 0.0723 | – | 0.0704 | 0.0638 | – | 0.0535 | 0.0592 | 0.0646 | – | 0.0676 | 0.0605 | 0.0587 | – | – | –
P93T | 0.0494 | – | 0.0509 | – | – | – | – | 0.0474 | – | 0.0636 | 0.0598 | 0.0635 | – | 0.0734 | 0.0703 | – | –
P93V | 0.0637 | – | 0.0704 | – | 0.0591 | 0.0678 | – | 0.0609 | 0.0629 | 0.0503 | – | 0.0522 | – | – | – | – | –
P94F | 0.0553 | 0.0823 | – | – | 0.087 | – | – | 0.0662 | – | 0.0707 | – | – | – | – | – | – | 0.0678
P94R | 0.0804 | – | 0.0625 | – | 0.0468 | 0.0595 | 0.0846 | 0.0703 | – | – | 0.0712 | 0.0628 | 0.0674 | – | 0.0578 | – | 0.0594
P94S | 0.094 | – | – | – | – | – | – | 0.0836 | – | – | – | 0.0637 | – | – | – | – | –
F95C | 0.0719 | – | 0.0689 | – | – | – | 0.0582 | 0.0844 | – | – | – | 0.0482 | – | – | – | – | –
F95D | 0.0491 | – | – | 0.0434 | 0.0333 | 0.0636 | 0.0435 | 0.0454 | 0.0271 | – | – | – | – | 0.0422 | – | 0.0432 | –
F95I | 0.0667 | 0.0492 | 0.0611 | 0.0846 | 0.0626 | 0.0582 | 0.0456 | – | 0.0578 | – | 0.0701 | 0.0455 | – | – | – | – | –
F95K | 0.0384 | – | – | – | – | – | – | – | – | – | – | 0.0319 | – | – | 0.0548 | – | 0.048
P96I | 0.0709 | – | 0.0702 | 0.0605 | 0.056 | – | 0.0624 | 0.0547 | 0.0668 | 0.0682 | 0.0752 | 0.064 | 0.0579 | 0.0619 | 0.0623 | 0.0781 | –
K98D | 0.0758 | 0.0817 | 0.0672 | 0.0617 | 0.0619 | 0.0607 | 0.0602 | 0.0766 | – | 0.0716 | – | 0.0499 | 0.062 | – | 0.072 | 0.0749 | 0.0616

Variant | area with substrate CNLYFQS | area with substrate FNLYFQS | area with substrate HNLYFQS | area with substrate INLYFQS | area with substrate KNLYFQS | area with substrate LNLYFQS | area with substrate MNLYFQS | area with substrate PNLYFQS | area with substrate SNLYFQS | area with substrate TNLYFQS | area with substrate VNLYFQS | area with substrate WNLYFQS | area with substrate YNLYFQS | area with substrate GNLYFQS | area with substrate NNLYFQS | area with substrate QNLYFQS | area with substrate RNLYFQS
L99F | 0.0592 | – | – | 0.0637 | 0.0504 | 0.0717 | – | 0.0634 | 0.0624 | 0.0575 | 0.0654 | – | – | 0.0498 | 0.0607 | 0.0911 | –
L99G | 0.0642 | – | 0.0627 | – | – | 0.05 | – | 0.0729 | 0.0605 | 0.0584 | – | 0.0521 | – | 0.0637 | 0.0406 | – | –
K100C | 0.0728 | – | 0.0711 | 0.0562 | 0.0292 | 0.0598 | – | 0.0801 | – | 0.0672 | – | 0.0688 | 0.0618 | 0.0716 | 0.0622 | – | 0.056
F101C | 0.0612 | 0.0481 | 0.0609 | 0.0332 | 0.0758 | 0.049 | 0.0509 | 0.0516 | 0.0674 | – | 0.0607 | 0.0561 | 0.0776 | 0.0649 | 0.0552 | 0.057 | –
F101L | 0.0583 | – | 0.0615 | – | – | 0.0663 | – | 0.0626 | – | – | – | – | – | 0.0552 | – | – | 0.0551
F101R | 0.0527 | – | – | – | 0.05 | – | – | 0.0434 | 0.0532 | 0.0665 | 0.0541 | – | 0.0511 | 0.043 | – | – | 0.0523
R102P | 0.0374 | 0.046 | 0.0497 | 0.06 | 0.0794 | 0.0458 | – | 0.0485 | – | 0.0547 | – | 0.0364 | 0.0397 | – | – | – | –
E103R | 0.0668 | – | 0.0099 | – | – | 0.0642 | 0.0703 | 0.0655 | 0.0734 | 0.0565 | 0.043 | 0.0578 | 0.0404 | 0.0653 | 0.0415 | – | –
Q105P | 0.0486 | 0.0491 | 0.0504 | – | 0.0626 | 0.0546 | – | 0.0465 | – | 0.0437 | 0.0468 | 0.0586 | – | 0.0501 | 0.0487 | – | 0.0583
Q105S | 0.0556 | 0.0695 | – | 0.0582 | 0.051 | 0.0713 | – | 0.0774 | – | 0.0613 | 0.0751 | 0.0466 | 0.0443 | 0.0652 | 0.0444 | – | –
R106M | 0.0543 | – | 0.0741 | – | 0.0672 | – | – | – | 0.0756 | – | – | 0.0675 | – | – | – | – | –
R106V | 0.0603 | – | 0.0625 | – | – | – | – | 0.0699 | 0.0954 | 0.0581 | 0.0317 | 0.0707 | 0.0593 | – | – | – | –
R106Y | 0.0708 | – | 0.0574 | – | 0.0734 | 0.067 | 0.0636 | 0.0808 | 0.085 | 0.0582 | 0.083 | 0.0604 | – | 0.0606 | 0.0712 | – | –
E107I | 0.0556 | – | 0.043 | 0.0662 | 0.0708 | – | – | – | 0.0589 | – | 0.0626 | 0.0594 | – | – | – | 0.0602 | 0.0644
E107P | 0.0709 | 0.0592 | 0.0457 | 0.0432 | 0.0636 | – | 0.0682 | 0.0721 | 0.0741 | 0.0636 | 0.0726 | – | – | 0.0642 | – | – | –
E107R | 0.0824 | 0.0673 | 0.0662 | 0.0539 | – | 0.0709 | – | 0.0798 | – | – | – | 0.048 | – | 0.0688 | 0.0642 | – | –
E108F | 0.0828 | – | 0.053 | – | – | – | – | 0.0617 | 0.0425 | 0.0438 | – | 0.0525 | – | – | – | 0.0546 | –
R109V | 0.0557 | 0.0591 | 0.0649 | 0.0599 | 0.058 | 0.063 | – | 0.0234 | 0.052 | 0.0382 | 0.112 | 0.0666 | – | – | – | 0.075 | 0.071
